Experimental findings from PMC2683827, “GSK-3β phosphorylation of functionally distinct tau isoforms has differential, but mild effects” (Molecular Neurodegeneration, 2009) are described below.

This series concerns the molecule itself. In words: right angle laser light scattering + thioflavine S fluorescence + transmission electron microscopy of induced polymerization; self-polymerization into filaments induced by arachidonic acid (ARA, 0-150 μM; 75 μM for the phosphorylated isoforms and for TEM); 2 μM tau, 10 mM Hepes pH 7.64, 100 mM NaCl, 0.1 mM EDTA, 5 mM DTT, 3.75% ethanol, 18 hours at 23°C.

B1: GSK-3β phosphorylated tau isoform 1N3R (natural protein)
chain: not shown
modifications: phosphorylated by GSK-3β; an average of approximately 1 mole phosphate per mole of tau; sites not determined
notes: microtubule associated protein tau, human, isoform 1N3R: with exon 2, without exons 3 and 10; The phosphorylation reaction (with the kinase) was used without further purification; also called phosphorylated 1N3R; 1N3Rp
Take B1: the binding result was “binds”.

B2: tau isoform 1N3R (natural protein)
chain: not shown
notes: also called unphosphorylated 1N3R
Consider B2, for which the binding result is on record as “binds”.
